# The other results are listed elsewhere or left out.
# B1: GS7807E-bfa-538-23-538 (Bacteroides fragilis) (protein)
# chain: TDSFESFNTNEAGFDNDSKKQDFNYYGIPLGIIQQGIYFNYDWGSGKNWPFQTMQNLGADLFSGYVHDFNPFNEGKNNSTYYMMDGWNGSTWDNTYGYIMPEVQKSETINEKDNIGFFGITKILKVELMHRLSDLYGPIVYTQFGSKTGSTPDTQQEAYKAFFNDLDTGIAKIREYQKANPDIESFAKFDILMPQGKRTFSEWIRFANSLRLRLAVRIAMADSKLAVAEAQKALTDEEGLLEGNDEVVAVSTSSGYTNPFGEINKAWGEVFMNANMESLLVGYEDPRMEKYFDKATGSDATSLIDYKGTYKGIRQGTGFSHKNYNGHSKSTITQQTDAVLMTPAEVWFLRAEAALRGWSSESVKDCYEKGVKASFAQWGAAGAEAYLESDRKPSDYVDAFKAANNVKAVNTLTPKWDDAAGNEDKLGRIITQKWLAMFPEGGEAWAEQRRTGYPRLFPVLVNQSEGTVDTNLGPRRLNFFVGIKTTNPEQYTQLVNALGGIDNCGTRLWWDTGRNF
# Columns and labels:
# Assay in all cases: glycan array binding signal (z-score within array); higher = stronger binding
# Settings in all cases: glycan notation: IUPAC condensed, linker removed
# [1] = molecular target: Neu5Ac(a2-6)Gal(b1-4)GlcNAc(b1-2)Man(a1-3)[Neu5Ac(a2-3)Gal(b1-4)GlcNAc(b1-2)Man(a1-6)]Man(b1-4)GlcNAc(b1-4)GlcNAc
# Summary of the method: (§1)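 From the Consortium for Functional Glycomics database, 3228 arrays were curated, keeping only those whose protein sequence was available. Binding is given as a within-array Z-score averaged across arrays sharing a protein sequence and across linkers. Negative Z-scores can be read as non-binding.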
# [2] = molecular target: Neu5Ac(a2-6)Gal(b1-4)GlcNAc(b1-2)Man(a1-3)[Neu5Ac(a2-6)Gal(b1-4)GlcNAc(b1-2)Man(a1-6)]Man(b1-4)GlcNAc(b1-4)GlcNAc
# Summary of the method: as §1
# [3] = molecular target: Neu5Ac(a2-6)Gal(b1-4)GlcNAc(b1-2)Man(a1-3)[Neu5Ac(a2-6)Gal(b1-4)GlcNAc(b1-2)Man(a1-6)]Man(b1-4)GlcNAc(b1-4)[Fuc(a1-6)]GlcNAc
# Summary of the method: as §1
# [4] = molecular target: Neu5Ac(a2-6)Gal(b1-4)GlcNAc(b1-2)Man(a1-6)Man(b1-4)GlcNAc(b1-4)GlcNAc
# Summary of the method: as §1
# [5] = molecular target: Neu5Ac(a2-6)Gal(b1-4)GlcNAc(b1-2)Man(a1-6)[Gal(b1-4)GlcNAc(b1-2)Man(a1-3)]Man(b1-4)GlcNAc(b1-4)GlcNAc
# Summary of the method: as §1
# [6] = molecular target: Neu5Ac(a2-6)Gal(b1-4)GlcNAc(b1-2)Man(a1-6)[GlcNAc(b1-2)Man(a1-3)]Man(b1-4)GlcNAc(b1-4)GlcNAc
# Summary of the method: as §1
# [7] = molecular target: Neu5Ac(a2-6)Gal(b1-4)GlcNAc(b1-2)Man(a1-6)[Man(a1-3)]Man(b1-4)GlcNAc(b1-4)GlcNAc
# Summary of the method: as §1
# [8] = molecular target: Neu5Ac(a2-6)Gal(b1-4)GlcNAc(b1-2)[Neu5Ac(a2-6)Gal(b1-4)GlcNAc(b1-4)]Man(a1-3)[GlcNAc(b1-4)][Neu5Ac(a2-6)Gal(b1-4)GlcNAc(b1-2)[Neu5Ac(a2-6)Gal(b1-4)GlcNAc(b1-6)]Man(a1-6)]Man(b1-4)GlcNAc(b1-4)GlcNAc
# Summary of the method: as §1
# [9] = molecular target: Neu5Ac(a2-6)Gal(b1-4)GlcNAc(b1-2)[Neu5Ac(a2-6)Gal(b1-4)GlcNAc(b1-4)]Man(a1-3)[GlcNAc(b1-4)][Neu5Ac(a2-6)Gal(b1-4)GlcNAc(b1-4)Man(a1-6)]Man(b1-4)GlcNAc(b1-4)GlcNAc
# Summary of the method: as §1
# [10] = molecular target: Neu5Ac(a2-6)Gal(b1-4)GlcNAc(b1-2)[Neu5Ac(a2-6)Gal(b1-4)GlcNAc(b1-6)]Man(a1-6)[Neu5Ac(a2-6)Gal(b1-4)GlcNAc(b1-2)Man(a1-3)][GlcNAc(b1-4)]Man(b1-4)GlcNAc(b1-4)GlcNAc
# Summary of the method: as §1
# [11] = molecular target: Neu5Ac(a2-6)Gal(b1-4)GlcNAc(b1-3)Gal(b1-3)GlcNAc
# Summary of the method: as §1
# [12] = molecular target: Neu5Ac(a2-6)Gal(b1-4)GlcNAc(b1-3)Gal(b1-4)GlcNAc
# Summary of the method: as §1
# [13] = molecular target: Neu5Ac(a2-6)Gal(b1-4)GlcNAc(b1-3)Gal(b1-4)GlcNAc(b1-2)Man(a1-3)[Neu5Ac(a2-6)Gal(b1-4)GlcNAc(b1-3)Gal(b1-4)GlcNAc(b1-2)Man(a1-6)]GalNAc
# Summary of the method: as §1
# [14] = molecular target: Neu5Ac(a2-6)Gal(b1-4)GlcNAc(b1-3)Gal(b1-4)GlcNAc(b1-3)Gal(b1-4)GlcNAc
# Summary of the method: as §1
# [15] = molecular target: Neu5Ac(a2-6)Gal(b1-4)GlcNAc(b1-3)Gal(b1-4)GlcNAc(b1-3)Gal(b1-4)GlcNAc(b1-2)Man(a1-3)[Neu5Ac(a2-6)Gal(b1-4)GlcNAc(b1-3)Gal(b1-4)GlcNAc(b1-3)Gal(b1-4)GlcNAc(b1-2)Man(a1-6)]GalNAc
# Summary of the method: as §1
# [16] = molecular target: Neu5Ac(a2-6)Gal(b1-4)GlcNAc(b1-3)Gal(b1-4)GlcNAc(b1-3)GalNAc
# Summary of the method: as §1
# [17] = molecular target: Neu5Ac(a2-6)Gal(b1-4)GlcNAc(b1-3)Gal(b1-4)GlcNAc(b1-3)[Neu5Ac(a2-6)Gal(b1-4)GlcNAc(b1-3)Gal(b1-4)GlcNAc(b1-6)]GalNAc
# Summary of the method: as §1
# [18] = molecular target: Neu5Ac(a2-6)Gal(b1-4)GlcNAc(b1-3)Gal(b1-4)GlcNAc(b1-6)[Gal(b1-3)]GalNAc
# Summary of the method: as §1
# [19] = molecular target: Neu5Ac(a2-6)Gal(b1-4)GlcNAc(b1-3)Gal(b1-4)[Fuc(a1-3)]GlcNAc(b1-3)Gal(b1-4)[Fuc(a1-3)]GlcNAc
# Summary of the method: as §1
# [20] = molecular target: Neu5Ac(a2-6)Gal(b1-4)GlcNAc(b1-3)GalNAc
# Summary of the method: as §1
# [21] = molecular target: Neu5Ac(a2-6)Gal(b1-4)GlcNAc(b1-3)[Neu5Ac(a2-6)Gal(b1-4)GlcNAc(b1-6)]GalNAc
# Summary of the method: as §1
# [22] = molecular target: Neu5Ac(a2-6)Gal(b1-4)GlcNAc(b1-6)GalNAc
# Summary of the method: as §1
# [23] = molecular target: Neu5Ac(a2-6)Gal(b1-4)GlcNAc(b1-6)[Gal(b1-3)GlcNAc(b1-3)]Gal(b1-4)Glc
# Summary of the method: as §1
# [24] = molecular target: Neu5Ac(a2-6)Gal(b1-4)GlcNAc(b1-6)[Gal(b1-3)]GalNAc
# Summary of the method: as §1
# [25] = molecular target: Neu5Ac(a2-6)Gal(b1-4)GlcNAc6S
# Summary of the method: as §1
# Neu5Ac(a2-6)GalNAc = molecular target: Neu5Ac(a2-6)GalNAc
# Summary of the method: as §1
# [26] = molecular target: Neu5Ac(a2-6)GalNAc(b1-4)GlcNAc
# Summary of the method: as §1
# [27] = molecular target: Neu5Ac(a2-6)GalNAc(b1-4)GlcNAc6S
# Summary of the method: as §1
# [28] = molecular target: Neu5Ac(a2-6)GlcNAc(b1-4)GlcNAc
# Summary of the method: as §1
# [29] = molecular target: Neu5Ac(a2-6)GlcNAc(b1-4)GlcNAc(b1-4)GlcNAc
# Summary of the method: as §1
binder,measurement,setting,value
B1,glycan array binding signal (z-score),[1],-0.678
same,glycan array binding signal (z-score),[2],0.478
same,glycan array binding signal (z-score),[3],2.32
same,glycan array binding signal (z-score),[4],-0.26
same,glycan array binding signal (z-score),[5],3.21
same,glycan array binding signal (z-score),[6],-0.644
same,glycan array binding signal (z-score),[7],0.194
same,glycan array binding signal (z-score),[8],-0.635
same,glycan array binding signal (z-score),[9],-0.24
same,glycan array binding signal (z-score),[10],0.164
same,glycan array binding signal (z-score),[11],-0.187
same,glycan array binding signal (z-score),[12],-0.639
same,glycan array binding signal (z-score),[13],1.08
same,glycan array binding signal (z-score),[14],-0.589
same,glycan array binding signal (z-score),[15],0.933
same,glycan array binding signal (z-score),[16],-0.607
same,glycan array binding signal (z-score),[17],-0.258
same,glycan array binding signal (z-score),[18],1.89
same,glycan array binding signal (z-score),[19],-0.173
same,glycan array binding signal (z-score),[20],0.58
same,glycan array binding signal (z-score),[21],1.13
same,glycan array binding signal (z-score),[22],-0.512
same,glycan array binding signal (z-score),[23],1.71
same,glycan array binding signal (z-score),[24],-0.059
same,glycan array binding signal (z-score),[25],-0.682
same,glycan array binding signal (z-score),Neu5Ac(a2-6)GalNAc,-0.635
same,glycan array binding signal (z-score),[26],-0.685
same,glycan array binding signal (z-score),[27],0.616
same,glycan array binding signal (z-score),[28],-0.672
same,glycan array binding signal (z-score),[29],-0.677

# Reference: the supplement of paper PMC8728848
